Measurements from the supplement of paper PMC10338343.
± gives the standard deviation. Only a part is listed here, and it is no random draw.

What follows are sequences tested on MIWI (PIWIL1) piRISC loaded with L1MC piRNA (30 nt) (assay: pre-steady-state target cleavage rate (min^-1); MIWI and MILI are mouse PIWI proteins and EfPiwi is from a freshwater sponge; tags in brackets are library labels; higher = faster piRNA-guided slicing of the target). Conditions: guide: L1MC piRNA 5'p-UAACUAAAUACUAUGCAAGCUGUAGGUCCU; auxiliary factor: 500 nM mouse GTSF1.
Procedure: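 Cleave-'n-Seq: a library of target RNAs (target site embedded in constant flanks, ACAGCATTCCGCGTTAGTGATATCCG... 5' flank; DNA-blocked outside the site) at 0.1 nM was incubated with 1 nM active mouse MILI or MIWI piRISC (synthetic 5'-monophosphorylated piRNA guide) with or without 500 nM mouse GTSF1 at 33 °C for 1 min to 16 h. Uncleaved targets were sequenced and normalised to non-target controls, and the pooled three trials were fitted to a burst-and-steady-state model to give the pre-steady-state cleavage rate (min^-1; k3 is constrained to at most 1e-4). Sequence is the target site only; target names encode pairing extent (gX:gY) and contiguous / 1-mismatch / 2-mismatch / bulge geometry. Fits with R² ≤ 0 are excluded.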
With AGGACCUACAGCUUGCUUAGUAUUUAGUAA the “pre-steady-state target cleavage rate” value was 0.862 ± 0.079. In the case of UCCACCUAGUCCUUGCAUAGUAUUUAGUUA, the “pre-steady-state target cleavage rate” value is reported as 0.613 ± 0.028. UGGACCUACAGCUAGCAUAGUAUUUAGAAA was tested, and the “pre-steady-state target cleavage rate” value was 0.409 ± 0.041. UCCUGCAUCAGCUUGCAUAGUAUUUAGUAA was tested, and the “pre-steady-state target cleavage rate” value was 0.948 ± 0.058. UCCACCUACAGCUUGCAUAGUAUAAAGUUA was tested, and the “pre-steady-state target cleavage rate” value was 0.401 ± 0.039. UCCUGGAUCAGCUUGCAAUGUAUUUAGUUA was tested, and the “pre-steady-state target cleavage rate” value was 0.0725 ± 0.011. For UCCUGGAUGUCGUUGCUUAGUAUUUACUUA, the “pre-steady-state target cleavage rate” value was under 0.0001. With UCCUGGUACAGCUUGCAAAGUAUUUUGUUA the “pre-steady-state target cleavage rate” value was 0.372 ± 0.046. In the case of UCCUGGUUCAGCUUGCAUAGUAUUUAGUUA, the “pre-steady-state target cleavage rate” value is reported as 0.972 ± 0.042. In the case of ACCACCUACAGCUUGCAUAGUAUUUUCAAA, the “pre-steady-state target cleavage rate” value is reported as 0.519 ± 0.073. For UGGACCUACUGCUUCCAUAGUAUUUAGUUA, the “pre-steady-state target cleavage rate” value was 0.0331 ± 0.0053. In the case of UCCUGGAUGUGCUUGCUUACUAUUUAGUUA, the “pre-steady-state target cleavage rate” value is reported as 0.00515 ± 0.0042. UGGACCUACAGCUUGCUUAGUAUUUUCAAA was tested, and the “pre-steady-state target cleavage rate” value was 0.0862 ± 0.016. In the case of UCCUGGAUGAGCUUGCAUAGUAUUUUCUUA, the “pre-steady-state target cleavage rate” value is reported as 0.13 ± 0.038. For UCCUGGAUCAGCUUGCAUUGUAUAUAGUUA, the “pre-steady-state target cleavage rate” value was 0.164 ± 0.015. In the case of UGGACCUACAGGUUGCUUAGUAUUUAGUUA, the “pre-steady-state target cleavage rate” value is reported as 1.04 ± 0.061. In the case of UCCACCUACAGCUUGCAUAGUAUUAUCUAA, the “pre-steady-state target cleavage rate” value is reported as 0.262 ± 0.047. With UCCUGCUACAGCUUGCAUAGUAUUUAGUAA the “pre-steady-state target cleavage rate” value was 0.435 ± 0.041. For UCCACCUAGAGCAUGCAUAGUAUUUAGUUA, the “pre-steady-state target cleavage rate” value was 0.621 ± 0.096. UCCUGGAUGAGCUUGCAUAGAAUUUAGAUA was tested, and the “pre-steady-state target cleavage rate” value was 0.0718 ± 0.018. For AGGACCUAGUCCUUGCAUAGUAUUUAGUUA, the “pre-steady-state target cleavage rate” value was 1.05 ± 0.052. UCCUGGAUGAGCUUGGAUACUAUUUAGUUA was tested, and the “pre-steady-state target cleavage rate” value was 0.0602 ± 0.015.

Same assay, conditions: guide: L1MC piRNA 5'p-UAACUAAAUACUAUGCAAGCUGUAGGUCCU; auxiliary factor: none (no GTSF1)
AGGACCUACAGCUUGCUUAGUAUUUAGUAA was tested, and the “pre-steady-state target cleavage rate” value was 0.0262 ± 0.0068. With UCCACCUAGUCCUUGCAUAGUAUUUAGUUA the “pre-steady-state target cleavage rate” value was 0.0193 ± 0.0043. For UGGACCUACAGCUAGCAUAGUAUUUAGAAA, the “pre-steady-state target cleavage rate” value was 0.0032 ± 0.0023. UCCUGCAUCAGCUUGCAUAGUAUUUAGUAA was tested, and the “pre-steady-state target cleavage rate” value was 0.0365 ± 0.0074. UCCACCUACAGCUUGCAUAGUAUAAAGUUA was tested, and the “pre-steady-state target cleavage rate” value was 0.0121 ± 0.0029. For UCCUGGAUCAGCUUGCAAUGUAUUUAGUUA, the “pre-steady-state target cleavage rate” value was 0.00523 ± 0.0025. With UCCUGGUACAGCUUGCAAAGUAUUUUGUUA the “pre-steady-state target cleavage rate” value was 0.0204 ± 0.0041. For UCCUGGUUCAGCUUGCAUAGUAUUUAGUUA, the “pre-steady-state target cleavage rate” value was 0.0721 ± 0.016. With UGGACCUACUGCUUCCAUAGUAUUUAGUUA the “pre-steady-state target cleavage rate” value was 0.00429 ± 0.0015. With UCCUGGAUGUGCUUGCUUACUAUUUAGUUA the “pre-steady-state target cleavage rate” value was 0.00374 ± 0.0017. For UCCUGGAUGAGCUUGCAUAGUAUUUUCUUA, the “pre-steady-state target cleavage rate” value was 0.00825 ± 0.0029. In the case of UCCUGGAUCAGCUUGCAUUGUAUAUAGUUA, the “pre-steady-state target cleavage rate” value is reported as 0.0141 ± 0.0053. With UGGACCUACAGGUUGCUUAGUAUUUAGUUA the “pre-steady-state target cleavage rate” value was 0.0177 ± 0.0036. UCCUGCUACAGCUUGCAUAGUAUUUAGUAA was tested, and the “pre-steady-state target cleavage rate” value was 0.0184 ± 0.0032. With UCCACCUAGAGCAUGCAUAGUAUUUAGUUA the “pre-steady-state target cleavage rate” value was 0.0151 ± 0.0026. For UCCUGGAUGAGCUUGCAUAGAAUUUAGAUA, the “pre-steady-state target cleavage rate” value was 0.00652 ± 0.0025. In the case of UCGACCUACAGCUUGGAUAGUAUUUAGUUA, the “pre-steady-state target cleavage rate” value is reported as 0.0599 ± 0.01. AGGACCUAGUCCUUGCAUAGUAUUUAGUUA was tested, and the “pre-steady-state target cleavage rate” value was 0.052 ± 0.01. In the case of UCCUGGAUGAGCUUGGAUACUAUUUAGUUA, the “pre-steady-state target cleavage rate” value is reported as 0.00625 ± 0.0037.
